Measured values: patent US11857560B2, “Pharmaceutical compositions comprising substituted nucleotides and nucleosides for treating viral infections” (priority 2013, dated 2024)

Experiments:
[1] = test system: HCV replicon GT1b-NS5B-S96T; assay: microbe, parasite or virus in culture; type: cell-based; conditions: Hepatitis C virus, read-out: EC50 (μM) GT1b-NS5B-S96T
[2] = test system: HCV replicon GT1b-NS5B-S282T; assay: microbe, parasite or virus in culture; type: cell-based; conditions: Hepatitis C virus, read-out: EC50 (μM) GT1b-NS5B-S282T

CC(C)OC(=O)[C@H](C)N[P@](=O)(OC[C@H]1O[C@@H](n2ccc(=O)[nH]c2=S)[C@](C)(O)C1O)Oc1ccccc1 (some centres unmarked) [ENUC-02023-1]
EC50 [1]: 0.0787 µM
EC50 [2]: ~7.26 µM
